# Test results: the supplement of paper PMC11876631
# ± gives the standard deviation of the averaged measurements. Laboratory Escherichia coli strains with one amino-acid change in an essential protein, pooled on minimal glucose agar with carbenicillin or gentamicin at twice the control MIC (plus kanamycin and chloramphenicol for the plasmids), 48 h. Fold change of barcode share against drug-free plates; higher = less susceptible. Active = above 20 in both replicates (the paper's putatively resistant). '<' = one read or none on drug, '>' = one read or none on a drug-free plate. Shares are relative, so most strains fall below 1 when a few take over. Listed are strains with at least 15 reads on both drug-free plates, and hits; most hits rest on fewer reference reads. Replicate rank correlation about 0.5. Edits are read from barcodes.
# B1: argE; a variant is named by its letters at X, in order (parent)
# chain: MKNKLPPFIEIYRALIATPSISATEEALDQSNADLITLXADWFKDLGFNVEVQPVPGTRNKFNMLASIGQGAGGLLLAGHTDTVPFDDGRWTRDPFTLTEHDGKLYGLGTADMKGFFAFILDALRDVDVTKLKKPLYILATADEETSMAGARYFAETTALRPDCAIXGEPTSLQPVRAHKGHISNAIRIQGQSGHSSDPARGVNAIELMHDAIGHILQLRDNLKERYHYEAFTVPYPTLNLGHIHGGDASNRICACCELHMDIRPLPGMTLNELNGLLNDALAPVSERWPGRLTVDELHPPIPGYECPPNHQLXEVXEKLLGAKTEVXNYCTEAPFIQTLCPTLVLGPGSINQAHQPDEYLETRFIKPTRELITQVIHHFCWH
# B2: tsaC; numbered along this chain (parent)
# chain: MNNNLQRDAIAAAIDVLNEERVIAYPTEAVFGVGCDPDSETAVMRLLELKQRPVDKGLILIAANYEQLKPYIDDTMLTDVQRETIFSRWPGPVTFVFPAPATTPRWLTGRFDSLAVRVTDHPLVVALCQAYGKPLVSTSANLSGLPPCRTVDEVRAQFGAAFPVVPGETGGRLNPSEIRDALTGELFRQG
# B3: nadK; a variant is named by its letters at X, in order (parent)
# chain: MNNHFKCIGIVGHPRHPTALTTHEMLYRXLCTKGYEVIVEQQIAHELQLKNVKTGTLAEIGQLADLAVXVGGDGNMLGAARTLARYDIKVIGINRGNLGFLTDLDPDNAQQQLADVLEGHYISEKRFLLEAQVCQQDCQKRISTAXNEVVLHPGKVAHXIEFEVYIDEIFAFSQRSDGLIISTPTGSTAYSLSAGGPILTPSLDAITLVPMXPHTLSARPLVINSSSTIRLRFSHRRNDLEISCDSQIALPIQEGEDVLIRRCDYHLNLIHPKDYSYFNTLSTKLGWSKKLF
# B4: yidC; numbered along this chain (parent)
# chain: MDSQRNLLVIALLFVSFMIWQAWEQDKNPQPQAQQTTQTTTTAAGSAADQGVPASGQGKLISVKTDVLDLTINTRGGDVEQALLPAYPKELNSTQPFQLLETSPQFIYQAQSGLTGRDGPDNPANGPRPLYNVEKDAYVLAEGQNELQVPMTYTDAAGNTFTKTFVLKRGDYAVNVNYNVQNAGEKPLEISSFGQLKQSITLPPHLDTGSSNFALHTFRGAAYSTPDEKYEKYKFDTIADNENLNISSKGGWVAMLQQYFATAWIPHNDGTNNFYTANLGNGIAAIGYKSQPVLVQPGQTGAMNSTLWVGPEIQDKMAAVAPHLDLTVDYGWLWFISQPLFKLLKWIHSFVGNWGFSIIIITFIVRGIMYPLTKAQYTSMAKMRMLQPKIQAMRERLGDDKQRISQEMMALYKAEKVNPLGGCFPLLIQMPIFLALYYMLMGSVELRQAPFALWIHDLSAQDPYYILPILMGVTMFFIQKMSPTTVTDPMQQKIMTFMPVIFTVFFLWFPSGLVLYYIVSNLVTIIQQQLIYRGLEKRGLHSREKKKS
# Variants of: B1
# Experiment: barcode share on antibiotic plates over drug-free plates; higher = less susceptible
# Details: with Escherichia coli (laboratory strain); antibiotic: carbenicillin; 2× MIC (3.1 µg/mL)
# Procedure: (§1)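 A pool of E. coli strains, each edited to carry one amino-acid change in an essential protein, was grown for 48 h on minimal glucose agar with or without antibiotic; strain barcodes were sequenced; mean of two replicates.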
row,Variant,fold change of barcode share
1,LAVVV,1.14 ± 0.47
2,LIVVV M209W,0.232 ± 0.16
3,LIVWV,0.17 ± 0.14
4,LIVVA,0.296 ± 0.048
5,WIVVV,0.293 ± 0.03
6,AIVVV,0.522 ± 0.11

# Same assay, conditions: with Escherichia coli (laboratory strain); antibiotic: gentamicin; 2× MIC (MIC 0.45 µg/mL)
row,Variant,fold change of barcode share
1,LAVVV,0.00621 ± 0.002
2,LIVVV M209W,< 0.0154
3,LIVWV,< 0.00747
4,LIVVA,0.0101 ± 0.0086
5,WIVVV,0.0133 ± 0.011
6,AIVVV,0.00892 ± 0.0069
7,LIVVW,0.0319 ± 0.021
8,LIVAV,< 0.00402
9,LIDVV,< 0.00697
10,LIPVV,0.00992 ± 0.0015
11,LIAVV,< 0.00987
12,LIQVV,0.00822 ± 0.0013
13,LIWVV,0.00928 ± 0.0044

# Variants of: B2
# Experiment: as above
# Details: with Escherichia coli (laboratory strain); antibiotic: carbenicillin; 2× MIC (3.1 µg/mL)
# Procedure: as §1
row,Variant,fold change of barcode share
1,F97A,0.253 ± 0.14
2,I85D,0.358 ± 0.17
3,I85W,0.225 ± 0.0044
4,I85Q,0.433 ± 0.06
5,V124W,0.402 ± 0.099
6,F31W,0.297 ± 0.17
7,V124A,0.349 ± 0.2
8,L127A,0.42 ± 0.024
9,V124P,0.249 ± 0.067
10,V124D,0.255 ± 0.071
11,F97W,0.308 ± 0.049
12,L127Q,0.348 ± 0.13
13,I85A,0.305 ± 0.062
14,I85P,0.255 ± 0.1
15,V124Q,2.97 ± 0.36
16,F31Q,0.208 ± 0.03
17,V33Q,0.0728 ± 0.016
18,V33W,0.829 ± 0.53
19,L127W,0.278 ± 0.013

# Same assay, conditions: with Escherichia coli (laboratory strain); antibiotic: gentamicin; 2× MIC (MIC 0.45 µg/mL)
row,Variant,fold change of barcode share
1,I85W,0.00533 ± 0.0012
2,I85Q,0.00892 ± 0.0053
3,V124W,< 0.00784
4,F31W,< 0.0182
5,V124A,< 0.00461
6,L127A,< 0.0125
7,V124P,0.00784 ± 0.0013
8,V124D,< 0.0058
9,F97W,< 0.00519
10,I85A,0.0062 ± 0.0035
11,I85P,< 0.00334
12,V124Q,0.0466 ± 0.0058
13,V33Q,< 0.0111
14,V33W,< 0.011
15,L127W,< 0.0191
16,V33A,< 0.0133
17,V33P,< 0.0138

# Variants of: B3
# Experiment: as above
# Details: with Escherichia coli (laboratory strain); antibiotic: carbenicillin; 2× MIC (3.1 µg/mL)
# Procedure: as §1
row,Variant,fold change of barcode share
1,WAIMF,0.295 ± 0.091
2,WPIMF,0.0777 ± 0.022
3,WQIMF,0.448 ± 0.36
4,WVAMF,0.631 ± 0.45
5,WVIMA,0.406 ± 0.089
6,AVIMF,0.241 ± 0.042
7,QVIMF,0.306 ± 0.096
8,DVIMF,0.333 ± 0.083
9,PVIMF,0.136 ± 0.011
10,WVIMQ,0.325 ± 0.11
11,WVQMF,0.321 ± 0.034
12,WVWMF,0.464 ± 0.027

# Same assay, conditions: with Escherichia coli (laboratory strain); antibiotic: gentamicin; 2× MIC (MIC 0.45 µg/mL)
row,Variant,fold change of barcode share
1,WAIMF,0.0144 ± 0.0078
2,WPIMF,0.00561 ± 0.004
3,WQIMF,0.00912 ± 0.0047
4,WVAMF,0.0128 ± 0.0099
5,WVIMA,< 0.00277
6,AVIMF,< 0.00415
7,QVIMF,< 0.00427
8,DVIMF,0.012 ± 0.011
9,PVIMF,0.0102 ± 0.0095
10,WVIMQ,< 0.00296
11,WVQMF,0.00566 ± 0.0042
12,WVWMF,< 0.00791
13,WVIMF I160A,< 0.00839
14,WVIMF I160D,0.346 ± 0.46
15,WVIMF I160P,< 0.00494
16,WVIMF I160Q,< 0.00895
17,WVIMF I160W,0.132 ± 0.18
18,WVIPF,< 0.0188
19,WVIQF,< 0.00481
20,WVIWF,0.00652 ± 0.002

# Variants of: B4
# Experiment: as above
# Details: with Escherichia coli (laboratory strain); antibiotic: carbenicillin; 2× MIC (3.1 µg/mL)
# Procedure: as §1
row,Variant,fold change of barcode share
1,V253A,0.314 ± 0.0084
2,V253D,0.48 ± 0.14
3,V253P,1.29 ± 1.4
4,W308A,0.352 ± 0.091
5,W308D,0.368 ± 0.053
6,W308P,0.372 ± 0.036
7,W308Q,0.331 ± 0.062
8,I364A,0.342 ± 0.19
9,I364D,0.16 ± 0.067
10,I364Q,0.275 ± 0.21

# Same assay, conditions: with Escherichia coli (laboratory strain); antibiotic: gentamicin; 2× MIC (MIC 0.45 µg/mL)
row,Variant,fold change of barcode share
1,V253A,0.00634 ± 0.0043
2,V253D,< 0.00822
3,V253P,< 0.00442
4,W308A,0.00573 ± 0.006
5,W308D,0.00302 ± 0.003
6,W308P,0.0032 ± 0.0017
7,W308Q,0.00407 ± 0.0039
8,I364A,< 0.00507
9,I364D,< 0.00766
10,I364Q,< 0.0057
